Measurements from the antibiotic and cytotoxicity screens of Wong et al. (2023).
The list shows a part of the results.

Each molecule was assayed on S. aureus RN4220 (assay: growth inhibition call (relative growth <= 0.2)). Details: 50 µM.

Row | SMILES | growth inhibition call
1 | COc1ccc(S(=O)(=O)N2CCCN(S(=O)(=O)c3ccc(OC)c(OC)c3)CC2)cc1OC | inactive
2 | C[C@H]1CN([C@@H](C)CO)C(=O)Cc2cc(NS(=O)(=O)c3cn(C)cn3)ccc2O[C@@H]1CN(C)Cc1ccncc1 | inactive
3 | Cc1noc(C)c1NC(=O)N(C)C[C@@H]1OCCCC[C@H](C)Oc2ccc(NC(=O)C3CCCCC3)cc2C(=O)N([C@H](C)CO)C[C@H]1C | inactive
4 | C[C@@H]1CCCCO[C@H](CN(C)Cc2ccc(C(=O)O)cc2)[C@@H](C)CN([C@@H](C)CO)C(=O)c2cc(NC(=O)C3CCCCC3)ccc2O1 | inactive
5 | C[C@H]1CN([C@@H](C)CO)C(=O)CCCn2cc(nn2)CO[C@@H]1CN(C)S(=O)(=O)c1ccc2c(c1)OCCCO2 | inactive
6 | C[C@@H]1CCCCO[C@H](CN(C)Cc2ccc(C(=O)Nc3ccccc3N)cc2)[C@@H](C)CN([C@H](C)CO)C(=O)c2cc(N(C)C)ccc2O1 | inactive
7 | C[C@H]1CN([C@@H](C)CO)S(=O)(=O)c2ccc(C3=CCCC3)cc2O[C@H]1CN(C)C(=O)C1CCOCC1 | inactive
8 | Cn1c(=O)c2c(ncn2CCO)n(C)c1=O | inactive
9 | O=C(C[C@@H]1CC[C@@H]2[C@H](COC[C@H](O)CN2S(=O)(=O)c2ccccc2)O1)NCc1ccc2c(c1)OCO2 | inactive
10 | C[C@H](CO)N1C[C@H](C)[C@@H](CN(C)Cc2ccc(Oc3ccccc3)cc2)Oc2ccc(NS(=O)(=O)c3ccc(Cl)cc3)cc2CC1=O | inactive
11 | COCC#Cc1cnc2c(c1)C(=O)N([C@@H](C)CO)C[C@@H](C)[C@@H](CN(C)C(=O)CN1CCOCC1)O2 | inactive
12 | O=C(CCCCC(=O)N/N=C/c1cc(I)cc(I)c1O)NO | active
13 | Cc1cc(NC2CCCCC2)ncn1 | inactive
14 | CC(C)(N)c1ccccc1Br | inactive
15 | COc1ccc(S(=O)(=O)Nc2ccc3c(c2)CC(=O)N([C@H](C)CO)C[C@@H](C)[C@@H](CN(C)S(=O)(=O)c2c(C)noc2C)O3)cc1 | inactive
16 | C[C@@H]1CN([C@H](C)CO)C(=O)Cc2cc(NS(C)(=O)=O)ccc2O[C@H]1CN(C)S(=O)(=O)c1ccccc1 | inactive
17 | O=C(CCCCCNC(=O)OCCCCO[C@@H]1C[C@H](c2ccc3c(c2)OCO3)C=C(C(=O)N2CCOCC2)O1)NO | inactive
18 | Cc1noc(C)c1NC(=O)Nc1ccc2c(c1)CC(=O)N([C@@H](C)CO)C[C@@H](C)[C@H](CN(C)S(=O)(=O)c1ccccc1)O2 | inactive
19 | C[C@H](CO)N1C[C@H](C)[C@@H](CN(C)C(=O)Nc2ccccc2C(F)(F)F)OCc2cn(nn2)CCCC1=O | inactive
20 | NC1=N[C@H]2CS[C@@H](CCCCC(=O)O)[C@H]2N1 | inactive
21 | C[C@@H]1CN([C@@H](C)CO)C(=O)c2cc(NS(=O)(=O)c3cccs3)ccc2O[C@@H](C)CCCCO[C@@H]1CN(C)C(=O)Nc1ccc2c(c1)OCO2 | inactive
22 | NC[C@H]1O[C@H](O[C@H]2[C@@H](O[C@@H]3O[C@H](CO)[C@@H](O)[C@H]3O)[C@@H](O)[C@H](N)C[C@@H]2N)[C@H](N)[C@@H](O)[C@@H]1O | inactive
23 | Cn1cnc(S(=O)(=O)N[C@H]2C=C[C@H](CC(=O)NCC3CC3)O[C@@H]2CO)c1 | inactive
24 | C[C@H](CO)N1C[C@H](C)[C@H](CN(C)C(=O)CN(C)C)Oc2ncc(C#CC3(O)CCCC3)cc2C1=O | inactive
25 | C[C@@H]1CN([C@H](C)CO)C(=O)c2cc(NC(=O)Nc3ccccc3)ccc2O[C@H]1CN(C)Cc1ccc(C(F)(F)F)cc1 | inactive
26 | C[C@@H]1CN([C@@H](C)CO)C(=O)c2cc(NC(=O)CCC(F)(F)F)ccc2O[C@@H](C)CCCCO[C@@H]1CN(C)Cc1ccncc1 | inactive
27 | CCN(CC)CCOCCOC(=O)C1(c2ccccc2)CCCC1.O=C(O)CC(O)(CC(=O)O)C(=O)O | inactive
28 | Cc1ccc(S(=O)(=O)N(C)C[C@H]2Oc3ccc(NS(=O)(=O)c4cccs4)cc3C(=O)N([C@H](C)CO)C[C@H]2C)cc1 | inactive
29 | Cc1noc(C)c1S(=O)(=O)Nc1ccc2c(c1)C(=O)N([C@H](C)CO)C[C@H](C)[C@H](CN(C)C(=O)Nc1ccccc1)OCCCC[C@H](C)O2 | inactive
